Laboratory results from PubChem BioAssay (NCATS).
Several values for one entry are separate records, joined by “and”; a condition that tells them apart may be missing. Identical values can stand only once. The list shows a part of the results. Shown are side measurements of this screen, not its main read-out; they come without a call. Most of these compounds were active or inconclusive in the main read-out, so they are no random draw. For some assays here: The note in brackets gives the kind of curve behind each potency; many fits are weak.

Assays:
[1] = qHTS Assay for Lipid Storage Modulators (AID 1519); details: Drosophila S3 cells, BODIPY lipid droplet/cell ratio, laser cytometry, cells loaded with oleic acid
In short: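 Cells seeded at 5,000 per well were treated with compounds over a concentration series and loaded with oleic acid (400 uM, as added). Lipid droplet fluorescence (488 nm excitation, 500-530 nm channel) was read by laser-scanning cytometry and normalized to 20 uM Triacsin C.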

[2] = qHTS Assay for Modulators of Human Peripheral Myelin Protein 22 (PMP22) Expression/Activity (AID 1967); details: Cell-based PMP22 reporter, dual-color luciferase ratio
In short: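 Mouse MSC80 Schwann cells carrying Pmp22 promoter–green click beetle luciferase plus EF-alpha–red luciferase control, dosed 24 h at 37 °C. Dual-filter luminescence, overlap-corrected; %Activity from green/red ratio normalised to untreated cells, concentration-response curves fitted.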

[3] = qHTS assay for small molecule antagonists of peroxisome proliferator-activated receptor gamma signaling (AID 588537); details: HEK293 PPARg-UAS-bla, beta-lactamase ratio, antagonist mode; measured here: W460 blue channel
In short: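 Compounds are tested as concentration series for inhibition of rosiglitazone-driven (50 nM) reporter expression in GeneBLAzer PPAR-gamma-UAS-bla HEK293 cells. After 16 h at 37 C, CCF4 substrate is added for 2 h at room temperature and blue/green fluorescence is measured.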

[4] = qHTS assay for small molecule antagonists of vitamin D receptor signaling (AID 588541); details: HEK293T VDR-UAS-bla, beta-lactamase ratio, antagonist mode; measured here: W460 blue channel (cell viability)
[5] = qHTS assay for small molecule agonists of retinoid X receptor alpha signaling (AID 588544); details: HEK293T RXRa-UAS-bla, beta-lactamase reporter, 18 h; 530 nm emission
[6] = qHTS assay for small molecule antagonists of retinoid X receptor alpha signaling (AID 588546); details: HEK293T RXRa-UAS-bla, beta-lactamase ratio, antagonist mode; measured here: W530 green channel, cytotoxicity proxy;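 note: cells stimulated with 9-cis-retinoic acid as agonist; % is set by controls: 0 for no effect and ±100 for the full control effect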
In short: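 Beta-lactamase reporter inhibition, read as CCF4 fluorescence ratio (ex 405, em 460/530 nm) after 2 h at RT. HEK293T UAS-bla cells, 2500/well, were stimulated with 9-cis-RA at 500 or 100 nM final alongside test compound for 18 h at 37 C.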

[7] = qHTS assay for small molecule antagonists of glucocorticoid receptor signaling (AID 588533); details: HeLa MMTV-bla, GRE beta-lactamase ratio, antagonist mode, 18 h; measured here: W530 channel AC50;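 note: cells stimulated with 2 nM dexamethasone as agonist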
[8] = qHTS assay for small molecule antagonists of peroxisome proliferator-activated receptor delta signaling (AID 588535); details: HEK293T PPARd-UAS-bla, beta-lactamase FRET ratio, 18 h; 460 nm channel;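 note: cells co-treated with a PPAR-delta agonist as stimulator during compound exposure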
In short: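 Inhibition of PPAR-delta response element-driven beta-lactamase expression is measured in HEK293T cells exposed to a compound titration series for 18 hrs at 37 C. Half-maximal inhibition comes from Hill equation fitting.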

[9] = qHTS Assay for Inhibitors of PDE-IV (AID 607); details: HEK293 ACTOne CNG channel cells, membrane potential fluorescence; measured here: parental cell counter-screen;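 note: parental cells stimulated with forskolin 10 µM plus RO 20-1724 100 µM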
In short: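 Live HEK293 cells with a modified cyclic nucleotide-gated (CNG) channel report intracellular cAMP via membrane-potential dye fluorescence (ex 535/em 590 nm). Endogenous PDE-IV was targeted. Compounds were tested at up to 22.9 uM final; RO 20-1724 100 uM served as control.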

[10] = Nrf2 qHTS screen for inhibitors: Validation (AID 493153); details: A549 ARE-Fluc reporter, 18-24 h; AC50: CellTiter-Fluor fluorescence read, measured here: cytotoxicity CellTiter-Fluor AC50; viability change: measured here: cytotoxicity max response
In short: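 Concentration-response on A549 ARE_Fluc reporter cells exposed 18-24 h at 37 C, 5% CO2. Cytotoxicity read first by CellTiter-Fluor fluorescence (Ex 405/Em 525), then Nrf2 inhibition by BugLite luminescence after 15 min.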

[11] = S16 Schwann cell PMP22 intronic element beta-lactamase assay (AID 624044); details: S16 rat Schwann cells, PMP22 element beta-lactamase FRET, 24 h; measured here: 460 nm blue channel; note: nearly all actives have a fitted effect of over 15% in size
In short: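 Beta-lactamase reporter under a PMP22 intronic regulatory element in stable S16 rat Schwann cells; 24 h compound exposure. 460 nm blue signal normalized between DMSO (0%) and potassium clavulanate, with 535 nm FRET tracking viability; curves classed by r2 and response.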

[12] = measured here: cell count channel max response
[13] = measured here: cell number channel AC50
[14] = measured here: lipid (BODIPY) channel AC50
[15] = measured here: lipid channel max response
[16] = measured here: red reporter channel AC50, EF-alpha promoter control reporter in MSC80 mouse Schwann cells
Tags give direction and shape of the fitted curve.

Row | Compound | max response [1, 12] | AC50 [1, 13] | AC50 [1, 14] | max response [1, 15] | AC50 ([2]; measured here: green reporter channel AC50, mouse Pmp22 promoter in mouse Schwann cells) | AC50 [2, 16] | AC50 [3] | AC50 [4] | max response [5] [%] | max response [6] [%] | AC50 [7] | max response [8] [%] | AC50 [9] | AC50 [10] | viability change [10] [%] | AC50 [11]
1 | CC(=O)N1CCN(c2ccc(OC[C@H]3CO[C@](Cn4ccnc4)(c4ccc(Cl)cc4Cl)O3)cc2)CC1 | 16.7% and -16% | 70.8 nM [rising, full curve, poor fit] and 1.41 µM [falling, full curve, poor fit] | 63.1 nM [rising, full curve, poor fit] and 1.58 µM [falling, full curve, poor fit] | 24.5% and -17.4% | 42.6 µM [falling, full curve] | 42.6 µM [falling, partial curve] | 44.7 µM [falling, partial curve] | 44.7 µM [falling, partial curve, poor fit] | -15.7 | -23.5 |  |  |  |  |  | 
2 | Cc1cc2c(C(C)C)c(O)c(O)c(C=O)c2c(O)c1-c1c(C)cc2c(C(C)C)c(O)c(O)c(C=O)c2c1O | -31.3% and -4.08% and -35.7% | 5.01 µM [falling, partial curve, poor fit] and 7.94 µM [rising, full curve, poor fit] and 39.8 µM [falling, single point] | 7.08 µM [rising, full curve, poor fit] | -41.5% and -17.3% and -60.2% |  |  |  | 44.7 µM [falling, partial curve] |  | -51.3 | 44.7 µM [falling, single point] | -177 |  |  |  | 
3 | CCCCc1ccc(C(=O)O)nc1 | 22.9% |  | 31.6 µM [rising, single point] | 30.1% |  | 60.1 µM [falling, partial curve] |  |  |  |  |  |  | 7.94 µM [rising, partial curve] | 20.6 µM [falling, partial curve, poor fit] | -21 | 1.41 µM [falling, full curve, poor fit]
